According to PubChem BioAssay AID2101 (National Center for Advancing Translational Sciences (NCATS), 2009):
Hit rate of the full screen: of about 330,000 compounds, about 300 (0.091%) were called active. This list was built around the results that the source calls inconclusive (neither active nor inactive); the mix of calls is not that of the screen. Calls follow the shape of the dose curve; as a rule, active = well fitted inhibition curve with a large enough effect; inconclusive = small, poorly fitted or top-dose-only effect, or effect the other way, or another doubt; inactive = no such curve, though single readings can be large or run the other way. No potency is given beside an inconclusive call; the fits are too rough.

Each molecule was assayed against Lysosomal acid glucosylceramidase (Homo sapiens) (UniProt P04062) (assay: qHTS Assay for Inhibitors and Activators of N370S glucocerebrosidase as a Potential Chaperone Treatment of Gaucher Disease). Settings: N370S GC spleen homogenate, 4MU-glucoside fluorescence; activity change, negative = inhibition: at 59.4 µM (top of the series) unless noted.
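For activity change, negative = inhibition in this document: 0% = full enzyme activity and -100% = no enzyme basal.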
Potency is read from the fitted curve at half-maximal effect.

Compound | Potency | activity change, negative = inhibition
CNC(=S)NCCCCc1cnc[nH]1 | inactive | 
COc1cccc(NC(=O)c2cc([N+](=O)[O-])ccc2NCc2cccnc2)c1 | inactive | 
CC(C)CCN1NC2(CCC(C)CC2)NC1=S (centres undefined) | inconclusive [inhibitor, single point] | 
Cc1ccc(C(=O)NCC(=O)OCC(=O)c2ccc3c(c2)OCCO3)cc1C | inactive | 
COc1ccc(-c2nnc(-c3cccs3)o2)cc1OC | inactive | 
O=C(O)c1cc(-c2cccs2)nc2ccc(Br)cc12 | inconclusive [activator, single point] | 
C/[N+]([O-])=C1\Cc2ccccc2C1=O |  | inconclusive: 30.6% [activator]
CCCn1c(=O)c(C(=O)Nc2ncccc2O)c(O)c2ccccc21 | inactive | 
c1ccc(-c2cc3c(N4CCN(c5ncccn5)CC4)ncnc3s2)cc1 | inconclusive [activator, partial curve] | 
Cc1c(N=Cc2ccc[nH]2)c(=O)n(-c2ccccc2)n1C | inactive | 
COc1ccc(NS(=O)(=O)c2nnc(NC(=O)c3ccccc3F)s2)cc1 | inconclusive [inhibitor, partial curve] | 
COCCN1C(=O)N[C@@H](c2cccc(C(F)(F)F)c2)C(C(C)=O)=C1C | inactive | 
COc1ccc(N2C(=O)C(CC(=O)Nc3ccccc3)N(Cc3ccc4c(c3)OCO4)C2=O)cc1 (centres undefined) | inconclusive [inhibitor, full curve, poor fit] | 
COc1cccc(-c2nc3c(c(=O)[nH]c(=O)n3Cc3ccccc3)n2CCO)c1OC(F)F | inconclusive [activator, single point] | 
Cc1nnc(N/N=C/c2c(Cl)cccc2Cl)n1N | inconclusive [inhibitor, full curve] | 
Cc1ccc(NS(=O)(=O)c2cccc(C(=O)Nc3cc(C)on3)c2)cc1 | inconclusive [inhibitor, single point] | 
Cc1cc(NCCCN(C)C)n2c(nc3ccccc32)c1C#N | inconclusive [activator, partial curve] | 
c1cncc(CNc2ncnc3ccc(-c4ccco4)cc23)c1 | inactive | 
CC(C)(C)n1nnnc1CN(Cc1ccco1)Cc1cc2cc3c(cc2[nH]c1=O)OCO3 | inactive | 
COc1cccc(/C=C2/Sc3ccc(C(=O)NCCN4CCCC4)cc3NC2=O)c1 | inconclusive [inhibitor, single point] | 
COc1ccc(CCC(C)NCc2ccc(C(F)(F)F)cc2)cc1 (centres undefined) | inconclusive [inhibitor, partial curve] | 
O=[N+]([O-])c1ccc2oc(-c3ccccc3)nc2c1 | inactive | 
CCCC(=O)Nc1nc2c(C)c(Cl)ccc2s1 |  | inconclusive: 27.6% [activator]
CCOC(=O)c1sc2nc(N3CCOCC3)c3c(c2c1N)CCN(Cc1ccccc1)C3 | inactive | 
COc1ccc(NC(=O)CSc2c3c(nc4cc(Cl)ccc24)CCCC3)cc1OC | inactive | 

Compound | Potency | activity change, negative = inhibition
CCN(CC(=O)Nc1ccc2c(c1)OCCO2)Cc1cc(=O)oc2cc(C)c(C)cc12 | inconclusive [activator, partial curve] | 
CC1CCC2C(C1)c1sc(=O)[nH]c1SC2(C)C (centres undefined) | inconclusive [activator, partial curve] | 
COc1ccccc1CNC(=O)CCCOc1cc(=O)n(C)c2ccccc12 | inconclusive [inhibitor, single point] | 
COc1ccc(-n2c(C)cc(C(=O)CSc3ccc(NC(C)=O)cc3)c2C)cc1 | inactive | 
O=C(COC(=O)CCc1nc2ccccc2c(=O)[nH]1)Nc1ccccc1Cl | inconclusive [activator, single point] | 
c1ccc(-c2ccc(-c3cnc4n3CCCCC4)cc2)cc1 | inconclusive [inhibitor, single point] | 
O=C(NC(=S)Nc1nc2ccccc2s1)c1cccs1 | inconclusive [activator, partial curve] | 
O=C(COc1ccc(F)cc1)Nc1nc2c(s1)CCCC2 | inactive | 
C=C1c2cccc(C(F)(F)F)c2O[C@H](C(=O)OCC)[C@@H]1CCCCCC | inactive | 
N#Cc1cccc(NC(=O)N2CCCC3(CCN(C(=O)c4ccco4)CC3)C2)c1 | inactive | 
O=C(c1ccc(NS(=O)(=O)c2ccc3[nH]c(=O)[nH]c3c2)cc1)N1CCCCC1 | inconclusive [inhibitor, single point] | 
CCOc1ccc2nc(N(CCCN(C)C)C(=O)c3ccc(C(=O)c4ccccc4)cc3)sc2c1 | inconclusive [inhibitor, partial curve] | 
CC(CC(=O)O)CC(=O)N1CCN(S(=O)(=O)c2cccs2)CC1 (centres undefined) | inconclusive [inhibitor, full curve, poor fit] | 
COc1ccc(NC(=O)c2cc3n(n2)C(C(F)(F)F)CC(c2ccco2)N3)cc1 (centres undefined) | inconclusive [activator, full curve, poor fit] | 
COc1cccc(Cn2cnc3c([N+](=O)[O-])c(C)c(C)cc32)c1 | inconclusive [activator, single point] | 
Cc1nnc(NC(=O)c2sc3ccccc3c2Cl)s1 | inactive | 
COc1ccc2c(c1)cc1c(=O)n(CC(=O)NCCCN3CCOCC3)nc(C)n12 | inactive | 
O=C(Nc1ccc2c(c1)CCC2)c1cc2ccccc2o1 | inconclusive [activator, single point] | 
CCN(CC)c1ccc(/C=N/Nc2nc(C)cc(C)n2)cc1 | inactive | 
CC1(C)CC(=O)C2=C(C1)OC1=C(C(=O)CC(C)(C)C1)C2c1ccc(O)cc1O | inactive | 
C/C1=C\[C@@H](O)C(C(C)C)C(OC(=O)c2ccc(O)cc2)C/C(C)=C/CC1 (some centres undefined) | inactive | 
O=C(O)Cc1ccc(OCCNC[C@H](O)c2ccccc2)cc1 | inactive | 
COc1ccc(C(=O)N/C(=C/c2cccs2)c2nc3ccccc3[nH]2)cc1OC | inactive | 
OC[C@@H]1[C@@H](c2ccc(F)cc2)C(c2ccc(F)cc2)=NN1c1ccccc1 | inconclusive [activator, single point] | 
